The text below walks through data of publication PMC6919601, “Identification of Plasmodium dipeptidyl aminopeptidase allosteric inhibitors by high throughput screening” (PLoS ONE, 2019).

The structures appear in SMILES notation. About 230 (0.21%) of roughly 110,000 compounds showed an effect of 50% or more. This is one part of the list.
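Further: 30 min substrate incubation versus DMSO and 10 µM JCP410 controls.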

This test deals with DPAP1 (Plasmodium falciparum, UniProt Q8IIJ9). The test can be described thus: primary screen, percent inhibition; read by cleavage of a fluorogenic dipeptide substrate; higher = more effect of the substance. Also on record: species or system P. falciparum D10 trophozoite lysates; single well.
Sequence of DPAP1 (Q8IIJ9 whole entry, looked up): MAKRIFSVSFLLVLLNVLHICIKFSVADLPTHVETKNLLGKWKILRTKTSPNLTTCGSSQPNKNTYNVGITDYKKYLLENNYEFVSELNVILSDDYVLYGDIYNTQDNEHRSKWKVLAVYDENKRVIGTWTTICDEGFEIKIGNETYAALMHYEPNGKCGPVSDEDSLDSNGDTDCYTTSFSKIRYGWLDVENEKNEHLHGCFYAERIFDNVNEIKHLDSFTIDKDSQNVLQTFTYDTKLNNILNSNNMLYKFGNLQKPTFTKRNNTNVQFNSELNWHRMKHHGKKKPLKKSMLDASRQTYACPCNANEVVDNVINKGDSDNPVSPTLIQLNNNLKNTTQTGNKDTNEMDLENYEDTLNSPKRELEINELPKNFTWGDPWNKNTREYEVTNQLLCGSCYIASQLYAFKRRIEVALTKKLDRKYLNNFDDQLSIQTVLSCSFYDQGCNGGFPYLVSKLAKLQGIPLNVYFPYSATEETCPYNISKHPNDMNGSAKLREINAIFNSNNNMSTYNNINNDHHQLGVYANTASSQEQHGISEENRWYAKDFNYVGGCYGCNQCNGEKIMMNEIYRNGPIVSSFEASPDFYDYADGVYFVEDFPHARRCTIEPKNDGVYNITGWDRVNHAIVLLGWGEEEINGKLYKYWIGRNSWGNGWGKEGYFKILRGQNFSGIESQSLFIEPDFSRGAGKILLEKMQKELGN
As to `O=C1C=C(N2CCOCC2)C(N2CCOCC2)=CC1=O`, the “% Inhibition @ 10 uM” value is reported as -1.84%.

Consider `Cc1sc2c(c1C)c(=O)n(CCc1ccccc1)c(=O)n2CC(=O)c1ccccc1`, for which the “% Inhibition @ 10 uM” value was determined as 14.2%.

With `CCc1ccccc1N(CC(=O)Nc1ccc(C(C)C)cc1)S(C)(=O)=O`, the “% Inhibition @ 10 uM” value is listed as 6.79%.

With `CCCSc1nnc(NC(=O)c2cc(=O)c3cc(C)ccc3o2)s1`, the “% Inhibition @ 10 uM” value is recorded as -3.24%.

In the case of `COc1ccccc1CNS(=O)(=O)c1ccc(OC)c(Cl)c1Cl`, the “% Inhibition @ 10 uM” value is recorded as -2.83%.

`CC12CN3CC(C)(CN(C1)C3c1ccc3c(c1)OCO3)C2O` (stereo not drawn): the “% Inhibition @ 10 uM” value was -2.37%.

As for `O=C1c2cccnc2C(=O)N1c1cccc(-c2nc3ccccc3s2)c1`, the “% Inhibition @ 10 uM” value is -0.865%.

On to `CCN1CCN(CC(=O)Nc2sc3c(c2C#N)CCC(C)C3)CC1` (stereo not drawn), for which the “% Inhibition @ 10 uM” value is given as 0.746%.

Take `N#Cc1c(Cl)nc(-c2ccccc2)c2c1CCC2`: the “% Inhibition @ 10 uM” value is recorded as -5.72%.

Turning to `Nc1ccc(C(=O)Nc2cccc(Cl)c2)cc1`, the “% Inhibition @ 10 uM” value worked out at 2.37%.

On to `CC(=O)c1cccc(NC(=O)c2ccc(C)cc2)c1`, for which the “% Inhibition @ 10 uM” value is 1.35%.

With `N#CCNC(=O)[C@H](CCSCc1ccccc1)NC(=O)c1ccccc1`, the “% Inhibition @ 10 uM” value was determined as 2.86%.

With `CCOc1ccc(C=C2C(=O)OC(c3ccccc3)OC2=O)cc1` (stereo not drawn), the “% Inhibition @ 10 uM” value is on record as -4%.

For `COc1ccccc1/C=C/C1=NN(c2cccc(Cl)c2)C(c2ccccc2OC)C1` (stereo not drawn), the “% Inhibition @ 10 uM” value was 2.02%.

As for `CCOc1ccc(-n2c(C)c(C(=O)OC)c3cc(O)ccc32)cc1`, the “% Inhibition @ 10 uM” value was -8.71%.

On to `COc1ccc(CNc2nc(-c3ccco3)nn2C(=O)c2cccc(C)c2)cc1`, for which the “% Inhibition @ 10 uM” value stood at 0.248%.

Consider `COc1ccc2nc(C)c(CC=C(Cl)Cl)c(O)c2c1`, for which the “% Inhibition @ 10 uM” value is reported as -0.711%.

For `Cc1cs/c(=N\C(=O)c2ccccc2)n1-c1ccccc1`, the “% Inhibition @ 10 uM” value worked out at 5.28%.

As to `CC(C)Oc1c(C2(c3ccccc3)SCCCS2)c(=O)c1=O`, the “% Inhibition @ 10 uM” value was -0.941%.

In the case of `Cc1nn(CCC(=O)NCc2ccccc2Cl)c(=O)c2nn(-c3ccccc3)c(C)c12`, the “% Inhibition @ 10 uM” value is listed as -5.54%.

In the case of `CCOC(=O)c1c(C)[nH]c(C)c1S(=O)(=O)Nc1cccc(C)n1`, the “% Inhibition @ 10 uM” value amounted to 0.882%.

In the case of `CC(C)C[C@H](NC(=O)OCCC1CCCCC1)C(=O)NCC#N`, the “% Inhibition @ 10 uM” value is recorded as -6.68%.

For `O=C(C1CCN(S(=O)(=O)N2CCCC2)CC1)N1CCc2ccccc2C1`, the “% Inhibition @ 10 uM” value is listed as 2.18%.

Regarding `O=c1oc2ccc([N+](=O)[O-])cc2cc1-c1nc(-c2cccs2)cs1`, the “% Inhibition @ 10 uM” value worked out at 3.03%.

Regarding `COCCNC(=S)NCCc1c(C)[nH]c2ccc(C)cc12`, the “% Inhibition @ 10 uM” value is -2.16%.

With `CC(=O)N1CCC(CC(NC(=O)c2ccccc2)C(=O)NCC#N)CC1` (stereo not drawn), the “% Inhibition @ 10 uM” value was -3.7%.

As for `CC(C)c1ccc(/C=C/C(=O)Nc2ccc(F)cc2)cc1`, the “% Inhibition @ 10 uM” value is listed as -2%.

As for `O=C1C2=C(c3ccccc3CC23CCCCC3)N2CCCN=C2N1Cc1ccccc1`, the “% Inhibition @ 10 uM” value is on record as -2.26%.

As to `CC1(C)CC2=Nc3c(c(=O)[nH]c(=O)n3Cc3ccccc3)C(c3cccs3)C2=C(O)C1` (stereo not drawn), the “% Inhibition @ 10 uM” value is 1.01%.

As for `Cc1nn(C)c(C)c1/C=C(\C(=O)c1ccc(Cl)cc1Cl)n1cncn1`, the “% Inhibition @ 10 uM” value stood at 0.76%.

As for `COc1cccc2c(O)c(NC(=O)NCCCO)cnc12`, the “% Inhibition @ 10 uM” value is given as 2.05%.

As for `CC1CCN(S(=O)(=O)c2ccc(NC(=O)COc3cccc4ccccc34)cc2)CC1`, the “% Inhibition @ 10 uM” value is recorded as -5.32%.

`CC(=O)N1CCN(Cc2ccc(F)c(F)c2)CC1`: the “% Inhibition @ 10 uM” value was -3.27%.

For the compound `Cc1ccc(S(=O)(=O)N2CCN(C(=O)CN3CCCC3)C2C(C)C)cc1` (stereo not drawn), the “% Inhibition @ 10 uM” value was -2.26%.

As for `COc1cccc(C2=N/C(=C\C(C)=C\c3ccccc3)C(=O)O2)c1`, the “% Inhibition @ 10 uM” value is listed as -2.07%.

As for `N#Cc1ccccc1CO/N=C(\N)c1nonc1N`, the “% Inhibition @ 10 uM” value came out at 3.87%.

`O=C1CC(c2ccccc2)CC(O)=C1/C=N/c1cc(Br)ccc1O` (stereo not drawn): the “% Inhibition @ 10 uM” value is recorded as 10.7%.

As to `Cc1n[nH]c(SCC(=O)c2c[nH]c3ccccc23)n1`, the “% Inhibition @ 10 uM” value is on record as 0.146%.

For `CCOC(=O)N1CCN(c2ncnc3c2cnn3-c2ccccc2)CC1`, the “% Inhibition @ 10 uM” value is recorded as -2.31%.

Turning to `C=CCN1C(=O)C(CC(=O)Nc2ccccc2)S/C1=N\c1ccc(C(C)=O)cc1` (stereo not drawn), the “% Inhibition @ 10 uM” value is -1.95%.

With `O=C(NCC1CCN(C(=O)c2ccc3c(c2)OCO3)CC1)c1ccc2c(c1)OCO2`, the “% Inhibition @ 10 uM” value is on record as -1.61%.

On to `Cc1ccccc1OCC(=O)NC1CCCCC1`, for which the “% Inhibition @ 10 uM” value is given as -1.65%.

For `c1ccc2c(c1)nc(N1CCCCCC1)c1ccccc12`, the “% Inhibition @ 10 uM” value was 1.84%.

Regarding `COc1nc(C)nc(NC(=O)NS(=O)(=O)N2CCOCC2)n1`, the “% Inhibition @ 10 uM” value is -1.22%.

In the case of `COc1ccc(C2=N/C(=C\c3sccc3C)C(=O)O2)cc1Br`, the “% Inhibition @ 10 uM” value is reported as -1.82%.

For the compound `O=C(COc1ccc(Cl)cc1)N(Cc1ccccc1F)C1CCS(=O)(=O)C1` (stereo not drawn), the “% Inhibition @ 10 uM” value is -1.35%.

Take `O=C(O)c1ccc2[nH]c(-c3cccc(-c4nc5cc(C(=O)O)ccc5[nH]4)c3)nc2c1`: the “% Inhibition @ 10 uM” value is 7%.

For `O=C(CCCSc1nc2ccccc2s1)N1CCN(c2ncccn2)CC1`, the “% Inhibition @ 10 uM” value is recorded as 4.61%.

For the compound `CCCCNC(=O)c1cc2c(s1)-c1ccccc1SC2`, the “% Inhibition @ 10 uM” value was found to be 4.41%.

Turning to `C=CCN1C(=O)/C(=C\NC(C)CC)C(=O)NC1=S` (stereo not drawn), the “% Inhibition @ 10 uM” value is listed as -7.88%.

Turning to `CC(C)COc1cc(O)nc(S)n1`, the “% Inhibition @ 10 uM” value was -1.69%.
